About 550 (1.1%) of roughly 48,000 compounds were called active. Inconclusive results (about 4%) are left out. Cut-off read from the data, not from the text of the source: active = potency below about 15 µM; inconclusive = mostly about 16 µM to 33 µM; inactive = weaker than that. The list shows a part of the results.
Molecular target: Lysosomal acid glucosylceramidase (Homo sapiens) (UniProt P04062)
Experiment: Glucocerebrosidase;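 note: the screen sought inhibitors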
Conditions: purified enzyme, resorufin glucoside fluorescence (screen aimed at inhibitors), 20 min
In short: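 Compounds titrated against 0.2 nM normal enzyme, 30 uM resorufin beta-D-glucopyranoside substrate, citrate/phosphate buffer with taurocholate and tween-20, pH 5.9. Reaction ran 20 min at room temperature; fluorescence (Ex 548/Em 600) gave AC50.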
Potency is the fitted concentration of half-maximal effect.

Chain of UniProt P04062 (P04062 whole entry, looked up): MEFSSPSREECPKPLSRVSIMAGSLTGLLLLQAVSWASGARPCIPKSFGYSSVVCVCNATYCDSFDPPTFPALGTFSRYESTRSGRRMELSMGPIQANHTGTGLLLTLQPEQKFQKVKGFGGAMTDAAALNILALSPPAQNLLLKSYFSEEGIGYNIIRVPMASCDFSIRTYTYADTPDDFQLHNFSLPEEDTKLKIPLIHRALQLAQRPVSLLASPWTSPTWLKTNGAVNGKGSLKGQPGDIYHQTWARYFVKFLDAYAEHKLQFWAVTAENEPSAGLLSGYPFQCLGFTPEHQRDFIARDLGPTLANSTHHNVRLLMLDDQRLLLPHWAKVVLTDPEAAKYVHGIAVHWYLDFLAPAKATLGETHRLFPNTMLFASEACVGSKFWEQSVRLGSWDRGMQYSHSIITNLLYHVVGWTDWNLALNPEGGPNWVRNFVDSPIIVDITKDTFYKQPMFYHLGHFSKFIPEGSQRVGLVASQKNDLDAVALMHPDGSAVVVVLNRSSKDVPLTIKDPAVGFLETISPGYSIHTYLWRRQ

Potency, inactive:
CCOC(=O)c1sc2nc(CSCC(=O)OCc3ccc(C(=O)OC)o3)[nH]c(=O)c2c1C > 76.9 µM
COc1cccc(NC(=O)Cn2cnc3sc(C)c(S(=O)(=O)N4CCN(C)CC4)c3c2=O)c1 > 76.9 µM
CCCS(=O)(=O)N1CCC(C(=O)NCCN(C)Cc2ccccc2)CC1 > 76.9 µM
COc1cc(NC(=O)c2cccc(Cl)c2)c(OC)cc1NC(=O)CN1CCOCC1 > 76.9 µM
CCOc1ccccc1NC(=O)c1cc(CC(C)C)oc1C > 76.9 µM
CCOC(=O)C(NC(=O)CC)(Nc1ccc(S(=O)(=O)Nc2cc(C)on2)cc1)C(F)(F)F (stereo not given) > 76.9 µM
CN1CCN(CC#CC(C)(O)C2CC3C=CC2C3)CC1 (stereo not given) > 76.9 µM
Cc1nn(-c2ccccc2)c2c1C(O)n1c(nc3ccccc31)S2 (stereo not given) > 76.9 µM
CCn1nc(C(=O)OCC(=O)N2CCc3ccccc32)c2ccccc2c1=O > 76.9 µM
O=C1CN(C(=O)CSc2nnnn2-c2ccc(Cl)cc2)c2ccccc2N1 > 76.9 µM
CC(C(=O)Nc1cccnc1)N1C(=O)C2C3C=CC(C3)C2C1=O (stereo not given) > 76.9 µM
Cn1c(Cn2nnc3ccccc32)nnc1SCC(=O)c1ccc(F)cc1 > 76.9 µM
Cc1cccc(NC(=O)C2CCN(S(=O)(=O)c3cccc4nsnc34)CC2)n1 > 76.9 µM
O=C(CSc1ncn[nH]1)Nc1ccccc1C(=O)O > 76.9 µM
COC(=O)/C=C1\NCCSC1=O > 76.9 µM
O=C(NCC(c1cccnc1)N1CCOCC1)Nc1ccccc1 (stereo not given) > 76.9 µM
O=C1Nc2c(c(=O)[nH]c(=O)n2-c2ccccc2)C1(Nc1ncccn1)C(F)(F)F (stereo not given) > 76.9 µM
COc1cc(S(=O)(=O)N(Cc2cccnc2)Cc2ccco2)ccc1-n1cnnn1 > 76.9 µM
CCN(CC)S(=O)(=O)c1ccc(C(=O)C(C#N)c2ccccn2)cc1 (stereo not given) > 76.9 µM
Cn1c(=O)c2c(nc(CN3CCN(c4ccccc4)CC3)n2CCc2ccccc2)n(C)c1=O > 76.9 µM
Cc1cccn2cc(CNC(=O)C3CCCCC3)nc12 > 76.9 µM
O=C(c1cc(-c2ccc(Cl)cc2)on1)N1CCOCC1 > 76.9 µM
COC(=O)c1ccc(CSc2nnnn2-c2ccccc2)o1 > 76.9 µM
O=C(CN1C(=O)c2ccccc2C1=O)Nc1ccccc1C(=O)N1CCCC1 > 76.9 µM
Cc1nnc(N)nc1C > 76.9 µM
Cc1ccc(OCc2nc(C#N)c(N3CCN(Cc4ccccc4)CC3)o2)cc1 > 76.9 µM
CCCCCC(=O)Nc1ccc2oc(-c3ccncc3)nc2c1 > 76.9 µM
O=C(CSc1nnc(-c2ccncc2)n1CC1CCCO1)NCc1ccccc1 (stereo not given) > 76.9 µM
COc1cc(NC(=O)C2CCN(S(=O)(=O)c3cccc4nonc34)CC2)cc(OC)c1 > 76.9 µM
COc1ccc(-c2ccc(CCC(=O)O)n2C(C)C)cc1 > 76.9 µM
CCSc1nnc(-c2ccc(S(=O)(=O)NCc3cccs3)cc2)o1 > 76.9 µM
CCCCn1c(NCCC)nc2c1c(=O)[nH]c(=O)n2C > 76.9 µM
Cc1sc2ncnc(N3CCCCC3C)c2c1C (stereo not given) > 76.9 µM
CN1C(=O)N(C)C2C1N(CN1CCCCC1)C(=O)N2CN1CCCCC1 (stereo not given) > 76.9 µM
CCOC(=O)N1CCN(Cc2nc(-c3ccccc3)no2)CC1 > 76.9 µM
CCC(CC)C(=O)Nc1cc(NC(=O)C(CC)CC)cc(C(=O)O)c1 > 76.9 µM
CCOc1ccccc1CNc1ccc(N2CCOCC2)c(C(=O)O)c1 > 76.9 µM
CCOC(=O)CNC(=O)CSc1nc(N(C)C)nc(N2CCOCC2)n1 > 76.9 µM
CCC(C)NC(=O)CSc1nnc(-c2ccc(C(C)(C)C)cc2)n1C (stereo not given) > 76.9 µM
Cc1ncsc1C(=O)Nc1nc2c(s1)CC(C)CC2 (stereo not given) > 76.9 µM
CCOc1ccccc1NC(=O)CN(c1nccs1)S(=O)(=O)c1ccc(N)cc1 > 76.9 µM
Cc1ccc(-n2cccc2C(=S)N=P(N(C)C)(N(C)C)N(C)C)cc1 > 76.9 µM
CN/S(=N/S(=O)(=O)c1ccccc1)c1ccc(C)cc1 (stereo not given) > 76.9 µM
CC(SC1CCCC1)C(=O)Nc1ccnn1C(C)C (stereo not given) > 76.9 µM
COc1ccccc1C(CCN(Cc1cccs1)C(C)=O)c1ccco1 (stereo not given) > 76.9 µM

Reference: PubChem BioAssay AID360 (National Center for Advancing Translational Sciences (NCATS), 2006)
